Hit rate of the full screen: of about 45,000 compounds, about 200 (0.44%) were called active. About 7% were inconclusive and are not listed. Calls follow the shape of the dose curve; as a rule, active = well fitted activation curve with a large enough effect; inconclusive = small, poorly fitted or top-dose-only effect; inactive = no such curve, though single readings can be large or run the other way. The list shows a part of the results.

This assay is described as follows: qHTS of TDP-43 Inhibitors: NCGC Sytravon Library Screen. Also: 0% is about no effect; nearly all actives have a fitted effect of over 55% in size. The note with it: yeast TDP-43 toxicity rescue, BacTiter-Glo growth, 24 h; series mostly up to 46.1 µM; growth rescue (activation): at the top concentration. Summed up:
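TDP-43-expressing yeast, pregrown in raffinose, seeded at OD600 0.02 in galactose medium with compound for 24 hr at 30 deg C. Growth read by BacTiter-Glo luminescence, so rescue of toxicity appears as activation.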
Take `O=C(CN1CCCC1)NCC(=O)Nc1ccc(F)cc1`: the “growth rescue (activation)” value was inactive: 10.5%.

As for `O=C(O)CCN1CC2([N+](=O)[O-])C=CC(=O)C([N+](=O)[O-])(C1)C2CC(=O)c1ccccc1` (centres undefined), the “growth rescue (activation)” value is inactive: 27.9%.

Consider `CC(=O)c1ccc(C(=O)N(C)C2CCCN(Cc3ccccc3F)C2)s1` (centres undefined), for which the “growth rescue (activation)” value is inactive: 0.139%.

As to `CN(C(=O)CO/N=C/c1ccc(OC(F)F)cc1)C1CCS(=O)(=O)C1` (centres undefined), the “growth rescue (activation)” value was inactive: -3.26%.

For `Cc1ccc2cc(NC(=O)C3(C)CCN3CC(C)C)ccc2n1` (centres undefined), the “growth rescue (activation)” value was inactive: 2.87%.

`CC(OC(=O)c1cccs1)C(=O)NCCc1ccccc1` (centres undefined): the “growth rescue (activation)” value is inactive: 2.58%.

As to `O=C(N/N=C/c1ccc2cccnc2c1)c1nc2ccccc2c(=O)[nH]1`, the “growth rescue (activation)” value is inactive: -4.09%.

`COc1cc(NC(=O)C2(C)CCN2C(C)C)cc(OC)c1OC` (centres undefined): the “growth rescue (activation)” value is inactive: 7.19%.

In the case of `CC1CCN(C(=O)c2cc3c(=O)n4ccccc4nc3s2)CC1`, the “growth rescue (activation)” value was inactive: 17.7%.

As to `O=c1nc(Nc2ccc(OCc3ccccc3)cc2)sc2ncccc12`, the “growth rescue (activation)” value is inactive: -41%.

Turning to `O=C1c2ccccc2CC1Sc1nnc(-c2ccccn2)o1` (centres undefined), the “growth rescue (activation)” value is inactive: 9.18%.

On to `COc1ccc(/C=C(\NC(=O)c2ccco2)C(=O)NC(Cc2ccccc2)C(=O)O)cc1` (centres undefined), for which the “growth rescue (activation)” value was inactive: 13.7%.

In the case of `CCNc1nc2c(c(=O)n(Cc3ccccc3)c(=O)n2C)n1Cc1ccccc1`, the “growth rescue (activation)” value is inactive: 32.3%.

With `CCN(CC)c1cc(NCCO)c([N+](=O)[O-])c2nonc12`, the “growth rescue (activation)” value was inactive: 9.04%.

`O=C(CNC(=O)c1cccc(F)c1)OCC(=O)N1CCN(C(=O)c2ccco2)CC1`: the “growth rescue (activation)” value is inactive: 6.13%.

Take `COCCNC(=O)/C(C#N)=C/c1ccc(SC)cc1`: the “growth rescue (activation)” value is inactive: -21%.

On to `Cc1ccc(S(=O)(=O)c2nc(-c3ccco3)oc2SCC(N)=O)cc1`, for which the “growth rescue (activation)” value is inactive: 7.88%.

For `O=C1C=C(N2CCOCC2)C2(CCCCC2)O1`, the “growth rescue (activation)” value is inactive: 3.2%.

For `COc1ccc(CC(N)c2csc(Nc3ccccn3)n2)cc1` (centres undefined), the “growth rescue (activation)” value is inactive: 1.32%.

Turning to `c1ccc2c(c1)CCN(c1nc(CN3CCOCC3)nc3sc4c(c13)CCCC4)C2`, the “growth rescue (activation)” value is inactive: 14.2%.

On to `O=c1[nH]c(C2CCCN(S(=O)(=O)c3ccc(F)cc3)C2)nc2c1nnn2Cc1ccc(F)cc1` (centres undefined), for which the “growth rescue (activation)” value is inactive: -10.1%.

Take `NC(=S)N=Nc1c(O)[nH]c2c(Br)cc(Br)cc12`: the “growth rescue (activation)” value was inactive: -11.4%.

As to `O=C(CCn1cccn1)N1CCCC(N2CCN(c3cccc(Cl)c3)CC2)C1` (centres undefined), the “growth rescue (activation)” value is inactive: 9.33%.

For the compound `COc1ccc2c(CC(=O)NNC(=O)c3cccs3)coc2c1`, the “growth rescue (activation)” value is inactive: 35.1%.

As for `N#Cc1ccc(COC(=O)C2CC(=O)N(CCc3ccccc3)C2)cc1` (centres undefined), the “growth rescue (activation)” value is inactive: 6.86%.

As to `CCCn1nnnc1SCC(=O)N1C(C)CCCC1C` (centres undefined), the “growth rescue (activation)” value was inactive: -4.83%.

As to `O=C(/C=C/c1ccccc1[N+](=O)[O-])NCc1ccc(Cl)cc1`, the “growth rescue (activation)” value is inactive: 15.2%.

Regarding `CCN(CC)c1ccc(/C=C2/C(=O)c3ccc(C(=O)O)cc3C2=O)cc1`, the “growth rescue (activation)” value is inactive: -0.263%.

For `Cc1csc(NC(=O)CN2C(=O)COc3ccc(Cl)cc32)n1`, the “growth rescue (activation)” value is inactive: 8.78%.

As to `Cc1cccc(C(=O)NCCN2CCOCC2)c1[N+](=O)[O-]`, the “growth rescue (activation)” value was inactive: -0.384%.

For `COc1ccc(S(=O)(=O)N2CCOCC2)cc1NC(=O)CN1C(=O)NC2(CCCCC2C)C1=O` (centres undefined), the “growth rescue (activation)” value was inactive: 4.77%.

Regarding `O=c1[nH][nH]c(=O)n1-c1ccccc1`, the “growth rescue (activation)” value is inactive: 15.4%.

`COc1ccccc1/C=C1\SC(=S)N(CCC(=O)Nc2nnc(C)s2)C1=O`: the “growth rescue (activation)” value is inactive: -21.7%.

Turning to `COc1ccc(C(=O)n2nc(-c3ccco3)nc2SC)cc1OC`, the “growth rescue (activation)” value was inactive: -15.3%.

For `COc1ccc(N2C(=O)CSC2c2ccc(F)cc2)cc1` (centres undefined), the “growth rescue (activation)” value was inactive: 6.77%.

Take `Cc1cc(C)cc(OCC(O)CN2CCN(Cc3ccc4c(c3)OCO4)CC2)c1` (centres undefined): the “growth rescue (activation)” value was inactive: -0.77%.

In the case of `COc1ccc(-c2cc(NC=O)c3ncc(-c4ccc(OC)c(OC)c4)n3c2)cc1OC`, the “growth rescue (activation)” value is inactive: 1.84%.

`Cc1noc(C)c1C(=O)Nc1cccc2ncccc12`: the “growth rescue (activation)” value was inactive: -8.34%.

As to `OC(c1ccc(F)c(F)c1)c1ncc(-c2ccc(Cl)cc2)[nH]1` (centres undefined), the “growth rescue (activation)” value is inactive: 7.4%.

As to `COc1ccc(/C=N/Nc2nc(-c3cccnc3)nc3ccccc23)cc1OC`, the “growth rescue (activation)” value was inactive: -22.2%.

For `CCOC(=O)NC(=O)CSc1nnc(C2CC2)n1Cc1ccco1`, the “growth rescue (activation)” value was inactive: 3.5%.

For the compound `COc1ccc2nc(SC(C(=O)c3ccccc3)c3ccccc3)nc(C)c2c1` (centres undefined), the “growth rescue (activation)” value is inactive: -14.3%.

Regarding `COc1cc2c(=O)n(CCC(=O)NCC3CCCO3)c(=O)n(CC(=O)Nc3ccc(C)cc3C)c2cc1OC` (centres undefined), the “growth rescue (activation)” value was inactive: 12.9%.

On to `COc1cc(C(=O)N=c2sc3ccccc3n2C)cc(OC)c1OC`, for which the “growth rescue (activation)” value was inactive: 5.28%.

As for `Cc1cccc(Cc2nnc(CCC(=O)N3CCCC(CN4CCOCC4)C3)o2)c1` (centres undefined), the “growth rescue (activation)” value was inactive: -3.47%.

Turning to `CCc1c(C(=O)NNC(=S)NC2CCCCC2)csc1C`, the “growth rescue (activation)” value is inactive: -0.49%.

Turning to `COC(=O)CCCCCCCCCCN1CCCCC1`, the “growth rescue (activation)” value is inactive: 5.77%.

Consider `CCN(CC)CC(=O)N1c2ccccc2Oc2c(c(=O)n(C)c(=O)n2C)C1c1cccc([N+](=O)[O-])c1` (centres undefined), for which the “growth rescue (activation)” value was inactive: 6.48%.

For the compound `Cc1ccc(-c2csc(Nc3ccc(C(=O)O)cc3)[n+]2Cc2ccccc2)cc1`, the “growth rescue (activation)” value is inactive: -1.19%.

As to `Cc1nc(C)c(/C(O)=C/c2nc3ccccc3oc2=O)s1`, the “growth rescue (activation)” value is inactive: -9.93%.

As for `CN1CCN(C(=O)c2cnn3c(C(F)(F)F)cc(-c4cccs4)nc23)CC1`, the “growth rescue (activation)” value was inactive: 1.93%.

`CC(C)N(Cc1cnn(C)c1)Cc1nc(Cc2ccccc2Cl)no1`: the “growth rescue (activation)” value is inactive: 0.151%.

Take `CCOC(=O)CNS(=O)(=O)c1cc(-c2nn(C)c(=O)c3ccccc23)ccc1C`: the “growth rescue (activation)” value is inactive: 29.1%.

Turning to `Cc1ccc(S(=O)(=O)N2CCN(C(=O)C(C)Cn3nc(C)c(C)c3C)CC2)cc1C` (centres undefined), the “growth rescue (activation)” value is inactive: 8.08%.

(Values after PubChem BioAssay AID1347073 (National Center for Advancing Translational Sciences (NCATS), 2019).)
